# This is one part of the list.
# B1: Siglec-E (Mus musculus), Q91Y57 (protein)
# chain: MLLLLLLLLLWGIKGVEGQNPQEVFTLNVERKVVVQEGLCVLVPCNFSYLKKRLTDWTDSDPVHGFWYREGTDRRKDSIVATNNPIRKAVKETRNRFFLLGDPWRNDCSLNIREIRKKDAGLYFFRLERGKTKYNYMWDKMTLVVTALTNTPQILLPETLEAGHPSNLTCSVPWDCGWTAPPIFSWTGTSVSFLSTNTTGSSVLTITPQPQDHGTNLTCQVTLPGTNVSTRMTTRLNVSYAPKNLTVTIYQGADSVSTILKNGSSLPISEGQSLRLICSTDSYPPANLSWSWDNLTLCPSKLSKPGLLELFPVHLKHGGVYTCQAQHALGSQHISLSLSPQSSATLSEMMMGTFVGSGVTALLFLSVCILLLAVRSYRRKPARPAVVAPHPDALKVSVSQNPLVESQADDSSEPLPSILEAAPSSTEEEIHYATLSFHEMKPMNLWGQQDTTTEYSEIKFPQRTAWP
# Experiments:
# Test in all cases: glycan array binding signal (z-score within array); higher = stronger binding
# Details in all cases: glycan notation: IUPAC condensed, linker removed
# [1] = target: Neu5Ac(a2-6)Gal
# Method in brief: (§1)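 Arrays were curated from the Consortium for Functional Glycomics database, 3228 in total, and kept only where the protein sequence was available. Binding is expressed as a within-array Z-score. This score was averaged across arrays of the same protein sequence at different concentrations or buffers and across linkers, and negative values can be read as non-binding.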
# [2] = target: Neu5Ac(a2-6)Gal(b1-3)GlcNAc(b1-3)[Gal(b1-4)GlcNAc(b1-6)]Gal(b1-4)Glc
# Method in brief: as §1
# [3] = target: Neu5Ac(a2-6)Gal(b1-4)Glc
# Method in brief: as §1
# [4] = target: Neu5Ac(a2-6)Gal(b1-4)GlcNAc
# Method in brief: as §1
# [5] = target: Neu5Ac(a2-6)Gal(b1-4)GlcNAc(b1-2)Man
# Method in brief: as §1
# [6] = target: Neu5Ac(a2-6)Gal(b1-4)GlcNAc(b1-2)Man(a1-3)Man(b1-4)GlcNAc(b1-4)GlcNAc
# Method in brief: as §1
# [7] = target: Neu5Ac(a2-6)Gal(b1-4)GlcNAc(b1-2)Man(a1-3)[Gal(b1-4)GlcNAc(b1-2)Man(a1-6)]Man(b1-4)GlcNAc(b1-4)GlcNAc
# Method in brief: as §1
# [8] = target: Neu5Ac(a2-6)Gal(b1-4)GlcNAc(b1-2)Man(a1-3)[GlcNAc(b1-2)Man(a1-6)]Man(b1-4)GlcNAc(b1-4)GlcNAc
# Method in brief: as §1
# [9] = target: Neu5Ac(a2-6)Gal(b1-4)GlcNAc(b1-2)Man(a1-3)[GlcNAc(b1-4)][Neu5Ac(a2-6)Gal(b1-4)GlcNAc(b1-2)Man(a1-6)]Man(b1-4)GlcNAc(b1-4)GlcNAc
# Method in brief: as §1
# [10] = target: Neu5Ac(a2-6)Gal(b1-4)GlcNAc(b1-2)Man(a1-3)[Man(a1-6)]Man(b1-4)GlcNAc(b1-4)GlcNAc
# Method in brief: as §1
# [11] = target: Neu5Ac(a2-6)Gal(b1-4)GlcNAc(b1-2)Man(a1-3)[Neu5Ac(a2-3)Gal(b1-4)GlcNAc(b1-2)Man(a1-6)]Man(b1-4)GlcNAc(b1-4)GlcNAc
# Method in brief: as §1
# [12] = target: Neu5Ac(a2-6)Gal(b1-4)GlcNAc(b1-2)Man(a1-3)[Neu5Ac(a2-6)Gal(b1-4)GlcNAc(b1-2)Man(a1-6)]Man(b1-4)GlcNAc(b1-4)GlcNAc
# Method in brief: as §1
# [13] = target: Neu5Ac(a2-6)Gal(b1-4)GlcNAc(b1-2)Man(a1-3)[Neu5Ac(a2-6)Gal(b1-4)GlcNAc(b1-2)Man(a1-6)]Man(b1-4)GlcNAc(b1-4)[Fuc(a1-6)]GlcNAc
# Method in brief: as §1
# [14] = target: Neu5Ac(a2-6)Gal(b1-4)GlcNAc(b1-2)Man(a1-6)Man(b1-4)GlcNAc(b1-4)GlcNAc
# Method in brief: as §1
# [15] = target: Neu5Ac(a2-6)Gal(b1-4)GlcNAc(b1-2)Man(a1-6)[Gal(b1-4)GlcNAc(b1-2)Man(a1-3)]Man(b1-4)GlcNAc(b1-4)GlcNAc
# Method in brief: as §1
# [16] = target: Neu5Ac(a2-6)Gal(b1-4)GlcNAc(b1-2)Man(a1-6)[GlcNAc(b1-2)Man(a1-3)]Man(b1-4)GlcNAc(b1-4)GlcNAc
# Method in brief: as §1
# [17] = target: Neu5Ac(a2-6)Gal(b1-4)GlcNAc(b1-2)Man(a1-6)[Man(a1-3)]Man(b1-4)GlcNAc(b1-4)GlcNAc
# Method in brief: as §1
# [18] = target: Neu5Ac(a2-6)Gal(b1-4)GlcNAc(b1-2)[Neu5Ac(a2-6)Gal(b1-4)GlcNAc(b1-4)]Man(a1-3)[GlcNAc(b1-4)][Neu5Ac(a2-6)Gal(b1-4)GlcNAc(b1-2)[Neu5Ac(a2-6)Gal(b1-4)GlcNAc(b1-6)]Man(a1-6)]Man(b1-4)GlcNAc(b1-4)GlcNAc
# Method in brief: as §1
# [19] = target: Neu5Ac(a2-6)Gal(b1-4)GlcNAc(b1-2)[Neu5Ac(a2-6)Gal(b1-4)GlcNAc(b1-4)]Man(a1-3)[GlcNAc(b1-4)][Neu5Ac(a2-6)Gal(b1-4)GlcNAc(b1-4)Man(a1-6)]Man(b1-4)GlcNAc(b1-4)GlcNAc
# Method in brief: as §1
# [20] = target: Neu5Ac(a2-6)Gal(b1-4)GlcNAc(b1-2)[Neu5Ac(a2-6)Gal(b1-4)GlcNAc(b1-6)]Man(a1-6)[Neu5Ac(a2-6)Gal(b1-4)GlcNAc(b1-2)Man(a1-3)][GlcNAc(b1-4)]Man(b1-4)GlcNAc(b1-4)GlcNAc
# Method in brief: as §1
# [21] = target: Neu5Ac(a2-6)Gal(b1-4)GlcNAc(b1-3)Gal(b1-3)GlcNAc
# Method in brief: as §1
# [22] = target: Neu5Ac(a2-6)Gal(b1-4)GlcNAc(b1-3)Gal(b1-4)GlcNAc
# Method in brief: as §1
# [23] = target: Neu5Ac(a2-6)Gal(b1-4)GlcNAc(b1-3)Gal(b1-4)GlcNAc(b1-2)Man(a1-3)[Neu5Ac(a2-6)Gal(b1-4)GlcNAc(b1-3)Gal(b1-4)GlcNAc(b1-2)Man(a1-6)]GalNAc
# Method in brief: as §1
# [24] = target: Neu5Ac(a2-6)Gal(b1-4)GlcNAc(b1-3)Gal(b1-4)GlcNAc(b1-3)Gal(b1-4)GlcNAc
# Method in brief: as §1
# [25] = target: Neu5Ac(a2-6)Gal(b1-4)GlcNAc(b1-3)Gal(b1-4)GlcNAc(b1-3)Gal(b1-4)GlcNAc(b1-2)Man(a1-3)[Neu5Ac(a2-6)Gal(b1-4)GlcNAc(b1-3)Gal(b1-4)GlcNAc(b1-3)Gal(b1-4)GlcNAc(b1-2)Man(a1-6)]GalNAc
# Method in brief: as §1
# [26] = target: Neu5Ac(a2-6)Gal(b1-4)GlcNAc(b1-3)Gal(b1-4)GlcNAc(b1-3)GalNAc
# Method in brief: as §1
# [27] = target: Neu5Ac(a2-6)Gal(b1-4)GlcNAc(b1-3)Gal(b1-4)GlcNAc(b1-3)[Neu5Ac(a2-6)Gal(b1-4)GlcNAc(b1-3)Gal(b1-4)GlcNAc(b1-6)]GalNAc
# Method in brief: as §1
# [28] = target: Neu5Ac(a2-6)Gal(b1-4)GlcNAc(b1-3)Gal(b1-4)GlcNAc(b1-6)[Gal(b1-3)]GalNAc
# Method in brief: as §1
# [29] = target: Neu5Ac(a2-6)Gal(b1-4)GlcNAc(b1-3)Gal(b1-4)[Fuc(a1-3)]GlcNAc(b1-3)Gal(b1-4)[Fuc(a1-3)]GlcNAc
# Method in brief: as §1
# [30] = target: Neu5Ac(a2-6)Gal(b1-4)GlcNAc(b1-3)GalNAc
# Method in brief: as §1
# [31] = target: Neu5Ac(a2-6)Gal(b1-4)GlcNAc(b1-3)[Neu5Ac(a2-6)Gal(b1-4)GlcNAc(b1-6)]GalNAc
# Method in brief: as §1
# [32] = target: Neu5Ac(a2-6)Gal(b1-4)GlcNAc(b1-6)GalNAc
# Method in brief: as §1
# [33] = target: Neu5Ac(a2-6)Gal(b1-4)GlcNAc(b1-6)[Gal(b1-3)GlcNAc(b1-3)]Gal(b1-4)Glc
# Method in brief: as §1
# [34] = target: Neu5Ac(a2-6)Gal(b1-4)GlcNAc(b1-6)[Gal(b1-3)]GalNAc
# Method in brief: as §1
# [35] = target: Neu5Ac(a2-6)Gal(b1-4)GlcNAc6S
# Method in brief: as §1
# [36] = target: Neu5Ac(a2-6)GalNAc
# Method in brief: as §1
# [37] = target: Neu5Ac(a2-6)GalNAc(b1-4)GlcNAc
# Method in brief: as §1
# [38] = target: Neu5Ac(a2-6)GalNAc(b1-4)GlcNAc6S
# Method in brief: as §1
binder,measurement,setting,value
B1,glycan array binding signal (z-score),[1],-0.448
same,glycan array binding signal (z-score),[2],-0.473
same,glycan array binding signal (z-score),[3],-0.388
same,glycan array binding signal (z-score),[4],-0.408
same,glycan array binding signal (z-score),[5],0.336
same,glycan array binding signal (z-score),[6],-0.181
same,glycan array binding signal (z-score),[7],-0.274
same,glycan array binding signal (z-score),[8],-0.564
same,glycan array binding signal (z-score),[9],-0.37
same,glycan array binding signal (z-score),[10],-0.168
same,glycan array binding signal (z-score),[11],0.024
same,glycan array binding signal (z-score),[12],-0.422
same,glycan array binding signal (z-score),[13],-0.207
same,glycan array binding signal (z-score),[14],-0.327
same,glycan array binding signal (z-score),[15],-0.422
same,glycan array binding signal (z-score),[16],-0.374
same,glycan array binding signal (z-score),[17],-0.315
same,glycan array binding signal (z-score),[18],-0.036
same,glycan array binding signal (z-score),[19],0.587
same,glycan array binding signal (z-score),[20],-0.4
same,glycan array binding signal (z-score),[21],-0.164
same,glycan array binding signal (z-score),[22],-0.418
same,glycan array binding signal (z-score),[23],-0.591
same,glycan array binding signal (z-score),[24],-0.444
same,glycan array binding signal (z-score),[25],-0.29
same,glycan array binding signal (z-score),[26],-0.338
same,glycan array binding signal (z-score),[27],-0.39
same,glycan array binding signal (z-score),[28],0.96
same,glycan array binding signal (z-score),[29],-0.23
same,glycan array binding signal (z-score),[30],1.45
same,glycan array binding signal (z-score),[31],-0.052
same,glycan array binding signal (z-score),[32],-0.102
same,glycan array binding signal (z-score),[33],-0.217
same,glycan array binding signal (z-score),[34],-0.369
same,glycan array binding signal (z-score),[35],0.569
same,glycan array binding signal (z-score),[36],-0.32
same,glycan array binding signal (z-score),[37],-0.573
same,glycan array binding signal (z-score),[38],0.088
